Assay results from paper PMC6111810.
Results are given in words; binding and its absence hold for the method and conditions named. Binding seen in cells or lysates may run through a third protein. Some entries that bind do so weakly or less than the wild type. For part of these data: Tags and fused reporters may be left off the sequences shown.

Amino acid sequences for entries named in this document (tags omitted). A change or cut given only in a name is not applied to a line headed by its entry. Chains listed by the source or under a name are the forms on record and can include a tag or linker.
HA‐NEDD4 (neural precursor cell expressed, developmentally down‐regulated gene 4), wild type (P46934-4, form named): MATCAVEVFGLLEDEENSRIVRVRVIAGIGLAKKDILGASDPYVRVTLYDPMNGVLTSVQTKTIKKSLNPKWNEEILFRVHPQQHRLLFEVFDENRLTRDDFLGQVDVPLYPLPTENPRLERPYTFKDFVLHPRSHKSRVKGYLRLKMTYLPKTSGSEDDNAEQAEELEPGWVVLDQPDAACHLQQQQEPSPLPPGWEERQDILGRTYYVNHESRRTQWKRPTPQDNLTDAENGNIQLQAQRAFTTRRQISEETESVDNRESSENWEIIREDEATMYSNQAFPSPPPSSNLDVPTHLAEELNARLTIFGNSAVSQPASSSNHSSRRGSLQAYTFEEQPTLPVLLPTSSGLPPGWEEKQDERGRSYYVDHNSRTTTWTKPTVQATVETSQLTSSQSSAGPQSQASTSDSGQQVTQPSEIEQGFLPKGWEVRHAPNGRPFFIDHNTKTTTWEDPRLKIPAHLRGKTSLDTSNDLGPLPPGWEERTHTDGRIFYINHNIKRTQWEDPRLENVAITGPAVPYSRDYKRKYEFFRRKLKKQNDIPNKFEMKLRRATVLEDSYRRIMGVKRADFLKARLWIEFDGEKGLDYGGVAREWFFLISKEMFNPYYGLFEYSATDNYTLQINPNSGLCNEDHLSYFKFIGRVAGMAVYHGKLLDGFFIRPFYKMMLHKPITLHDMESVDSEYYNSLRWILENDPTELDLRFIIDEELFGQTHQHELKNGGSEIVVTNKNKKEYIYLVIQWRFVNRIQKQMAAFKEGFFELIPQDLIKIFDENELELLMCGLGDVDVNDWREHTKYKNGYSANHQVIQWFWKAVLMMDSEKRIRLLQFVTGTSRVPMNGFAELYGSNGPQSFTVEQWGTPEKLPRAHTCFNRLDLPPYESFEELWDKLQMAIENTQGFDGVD

Tests used:
[1] = molecular target: T1, FLAG‐tagged PIP5Kα C‐terminal region (435‐546 aa) (mouse) (UniProt P70182); assay: co-IP; anti‐FLAG IP (anti‐FLAG M2 affinity gel) from lysates of cells cotransfected with FLAG‐PIP5Kα constructs and HA‐NEDD4; HA immunoblot
T1 sequence: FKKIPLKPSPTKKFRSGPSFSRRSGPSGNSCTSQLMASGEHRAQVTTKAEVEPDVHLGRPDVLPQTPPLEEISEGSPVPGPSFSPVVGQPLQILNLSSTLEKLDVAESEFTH

FLAG‐PIP5Kα K88R (mouse) = FLAG‐PIP5Kα K88R (mouse) (UniProt P70182); assay: as above
[2] = molecular target: FLAG‐PIP5Kα (phosphatidylinositol 4‐phosphate 5‐kinase α), wild type (mouse) (UniProt P70182); assay: as above
[3] = molecular target: FLAG‐PIP5Kα AAGF mutant (LPGY to AAGF, 193‐196 aa) (mouse) (UniProt P70182); assay: as above
[4] = molecular target: FLAG‐PIP5Kα ∆CT (C‐terminally deleted, 1‐434 aa) (mouse) (UniProt P70182); assay: as above
[5] = molecular target: GST‐PIP5Kα, full‐length, wild type (mouse) (UniProt P70182); assay: pull-down; GST‐fusion proteins of PIP5Kα on glutathione‐Sepharose 4B beads mixed with lysates (~1.0 mg) of HEK293 cells expressing HA‐NEDD4, 4 hours at 4°C; washed with PBS containing 0.1% Tween 20; HA immunoblot; only the target purified
[6] = molecular target: GST‐PIP5Kα K88R, full‐length (mouse) (UniProt P70182); assay: as above
[7] = molecular target: T2, GST‐fusion protein of the N‐terminal region (1‐65 aa) of PIP5Kα (mouse) (UniProt P70182); assay: as above
T2 sequence: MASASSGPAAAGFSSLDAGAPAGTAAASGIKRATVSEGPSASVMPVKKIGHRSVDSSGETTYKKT

[8] = molecular target: T3, GST‐fusion protein of the C‐terminal region (435‐546 aa) of PIP5Kα (mouse) (UniProt P70182); assay: as above
T3 sequence: T1 sequence

- binding [1]: binds
- binding (FLAG‐PIP5Kα K88R (mouse)): binds
- binding [2]: binds
- binding [3]: binds
- binding [4]: no binding
- binding [5]: binds
- binding [6]: binds
- binding [7]: no binding
- binding [8]: binds
Substance: HA‐NEDD4 (neural precursor cell expressed, developmentally down‐regulated gene 4), wild type (from UniProt P46934-4 1-900) (enzyme)
